± gives the standard deviation. In all, about 3,000 sequences were measured (“pre-steady-state target cleavage rate”: median about 0.0079, highest 2% from about 0.2 on). The list shows a part of the results, in another mix than the full data. A value given as a limit tells only on which side of the number the result lay.

From the supplement of paper PMC10338343 come the findings set out here.

The subject of the experiment is MILI (PIWIL2) piRISC loaded with piRNA #2 (26 nt). The experiment can be described thus: pre-steady-state target cleavage rate (min^-1); MIWI and MILI are mouse PIWI proteins and EfPiwi is from a freshwater sponge; tags in brackets are library labels; higher = faster piRNA-guided slicing of the target. Conditions: guide: piRNA #2 5'p-UUAGGUAACCCAGUAGAUCCAGAGGA; auxiliary factor: 500 nM mouse GTSF1. In outline:
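Sequencing of uncleaved targets, normalised to depth and to weakly complementary targets, was the readout of this Cleave-'n-Seq assay. A transcribed, DNA-blocked target RNA library (0.1 nM) was mixed with 1 nM active affinity-purified piRISC carrying one synthetic guide, with or without 500 nM GTSF1 partner protein, in HEPES–potassium acetate buffer at 33 °C for 0–8 or 0–960 min. Three trials were pooled, k3 was capped at 0.0001 min^-1, and a burst-and-steady-state fit gave the pre-steady-state cleavage rate.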
As to CUUAUGCUCUGGAUCUACUGGGUUUCCUAA, the “pre-steady-state target cleavage rate” value amounted to 0.161 ± 0.039.
For the sequence CUUAAGGACUGGAUCUACUGGGUUGCCUAA, the “pre-steady-state target cleavage rate” value came to 0.0229 ± 0.013.
As for CUUAACCUCUGGAUCACUGGGUUACCUAA, the “pre-steady-state target cleavage rate” value was 0.00841 ± 0.0052.
Take CUUAACUUCUGGAUCUACUGGGUUACCUAA: the “pre-steady-state target cleavage rate” value was found to be 0.0906 ± 0.017.
In the case of CUUAAGGAGUGGAUCUACUGCGUUACCUAA, the “pre-steady-state target cleavage rate” value amounted to 0.00578 ± 0.0042.
In the case of CUUAACCUCUGGAUCAAGUGGGUUACCUAA, the “pre-steady-state target cleavage rate” value was found to be 0.0417 ± 0.01.
Turning to CUUAAGGAGACGUUCAACUGGGUUACCUAA, the “pre-steady-state target cleavage rate” value was under 0.0001.
Take CUUAAGGAGUGGAUCUACAGGGUUUCCUAA: the “pre-steady-state target cleavage rate” value came out at 0.056 ± 0.012.
Turning to CUUAACCUCAGGAACUACUGGGUUACCUAA, the “pre-steady-state target cleavage rate” value turned out to be 0.0837 ± 0.021.
As for CUUAACCUCUCCAUCUACUGGGUUACCUAA, the “pre-steady-state target cleavage rate” value was 0.118 ± 0.021.
Consider CUUAACCUCUGCUACUACUGGGUUACCUAA, for which the “pre-steady-state target cleavage rate” value was 0.0726 ± 0.016.
Consider CUUAUCCUCUGGUUCUACAGGGUUACCUAA, for which the “pre-steady-state target cleavage rate” value was found to be 0.167 ± 0.031.
With CUUAAGGUCUGGAUCUACUGGGUUACUAA, the “pre-steady-state target cleavage rate” value was found to be 0.113 ± 0.026.
For the sequence CUUAAGGAGACCUAGAUCUGGGUAACCAAA, the “pre-steady-state target cleavage rate” value is under 0.0001.
Take CUUAUCCACUGGAUGUACUGGGUUACCUAA: the “pre-steady-state target cleavage rate” value was 0.0889 ± 0.017.
Take CUUAACCUCUGAGAUCUACUGGGUUACCUAA: the “pre-steady-state target cleavage rate” value was 0.143 ± 0.031.
For CUUAUCCUCUGGAUGUACAGGGUUACCUAA the value was 0.135 ± 0.011.
CUUAUCCUCAGGAUCUACUGGGUUACCAAA: the “pre-steady-state target cleavage rate” value came to 0.051 ± 0.011.
With CUUAAGGUCUGGAUCUACUGGGUUAGCUAA, the “pre-steady-state target cleavage rate” value was 0.0948 ± 0.018.
For CUUAACCUCUGGAACUACUGCGUUACCUAA, the “pre-steady-state target cleavage rate” value came out at 0.0178 ± 0.0084.
As to CUUAACCACUGGAUCUACUGGGUUUCCUAA, the “pre-steady-state target cleavage rate” value was 0.0636 ± 0.019.
To CUUAAGCUCUGGAACUACUGCGUUACCUAA belongs 0.0134 ± 0.0072; to CUUAAGGUCUGGAUCGACUGGGUUACCUAA, 0.0608 ± 0.014; to CUUAAGGAGACCUACUACUGGGUUACGAUA, under 0.0001.
For CUUAAGCUCUGGUUCUACUGGGUUACCUUA, the “pre-steady-state target cleavage rate” value was found to be 0.126 ± 0.036.
CUUAAGGUCUGGAUCUACUGGGUCUACCUAA: the “pre-steady-state target cleavage rate” value was 0.0262 ± 0.0079.
Consider CUUAAGGUCUGGAUCUACUGGGUGACCUAA, for which the “pre-steady-state target cleavage rate” value worked out at 0.0186 ± 0.0078.
With CUUAAGCUCACGAUCUACUGGGUUACCUAA, the “pre-steady-state target cleavage rate” value turned out to be 0.102 ± 0.029.
With CUUAAGGACUAGAUCUACUGGGUUACCUAA, the “pre-steady-state target cleavage rate” value is 0.0231 ± 0.013.
To CUUAACCUCUGGAUCUACUGCGUAACCUAA belongs 0.00792 ± 0.0051; to CUUAAGGUCUGGAUCUAGUGGGUUACCAAA, 0.0567 ± 0.013; to CUUAUCCUUCUGGAUCUACUGGGUUACCUAA, 0.102 ± 0.021.
CUUAAGCUCUGGAUCAACUGCGUUACCUAA: the “pre-steady-state target cleavage rate” value was determined as 0.0057 ± 0.005.
To CUUAAGCUCGUGGAUCUACUGGGUUACCUAA belongs 0.0285 ± 0.016.
For CUUAUCCUCUGGAUCUUCAGGGUUACCUAA the value was 0.0802 ± 0.011; for CUUAUCCUCUGGAUCUAGUGGGUUACCUAA, 0.0881 ± 0.014; for CUUAACCAGUGGAUCUACUGGGUUACCUAA, 0.0864 ± 0.016.
With CUUAAGGUCUGGAUCUUCUGCGUUACCUAA, the “pre-steady-state target cleavage rate” value amounted to 0.00525 ± 0.0044.
On to CUUAAGGACUCGAUCUACAGGGUUACCUAA, for which the “pre-steady-state target cleavage rate” value was 0.0295 ± 0.0084.
On to CUUAAGGAGUGGAUCUACUGGGUUUCCUAA, for which the “pre-steady-state target cleavage rate” value turned out to be 0.018 ± 0.0074.
With CUUAAGCUCUGGAUCUACUUGGGUUACCUAA, the “pre-steady-state target cleavage rate” value was under 0.0001.
As for CUUAACCUCUGGAUACUACUGGGUUACCUAA, the “pre-steady-state target cleavage rate” value was 0.0873 ± 0.022.
Regarding CUUAAGCUCAUGGAUCUACUGGGUUACCUAA, the “pre-steady-state target cleavage rate” value was determined as 0.0484 ± 0.014.
Take CUUAUCCUCUGGAUCUACUGGGUUACGAAA: the “pre-steady-state target cleavage rate” value is 0.0846 ± 0.019.
CUUAAGGACUGGAUCUACUGGGUAUACCUAA: the “pre-steady-state target cleavage rate” value worked out at 0.0248 ± 0.016.
For CUUAAGCUCUGGAUCUACUGGGUAUACCUAA the value was 0.0713 ± 0.015; for CUUAAGGUCUGAAUCUACUGGGUUACCUAA, 0.0377 ± 0.0095; for CUUAAGGAGAGGAUCUACGGGGUUACCUAA, 0.0142 ± 0.0046.
CUUAUCCUCUGCAUGUACUGGGUUACCUAA: the “pre-steady-state target cleavage rate” value is 0.0877 ± 0.013.
In the case of CUUAAGCUCUUGAUCUACUGGGUUACCUAA, the “pre-steady-state target cleavage rate” value was found to be 0.102 ± 0.018.
For CUUAAGCUCUGGAUGUACUGGGUUACCUAA, the “pre-steady-state target cleavage rate” value turned out to be 0.0646 ± 0.016.
With CUUAUCCUCUGGAUCGACUGGGUUACCUAA, the “pre-steady-state target cleavage rate” value was determined as 0.0789 ± 0.0097.
For the sequence CUUAAGGACUGGAUCUACAGGGUUACCUUA, the “pre-steady-state target cleavage rate” value amounted to 0.0366 ± 0.0097.
For the sequence CUUAACCUCUCGAUCUACUGGGUUACGUAA, the “pre-steady-state target cleavage rate” value worked out at 0.052 ± 0.017.
For CUUAAGGAGAGGCUCUACUGGGUUACCUAA the value was 0.0144 ± 0.0069.
For the sequence CUUAAGCUCUGGAUCUACUGGGUUACCAAA, the “pre-steady-state target cleavage rate” value turned out to be 0.101 ± 0.021.
On to CUUAUCCUCUGGAUAUACUGGGUUACCUAA, for which the “pre-steady-state target cleavage rate” value turned out to be 0.126 ± 0.018.
Take CUUAACCUCUGGUUCUACUGGCUUACCUAA: the “pre-steady-state target cleavage rate” value turned out to be 0.0095 ± 0.0042.
As for CUUAAGGAGACCUAGAUGUGCCUUACCUAA, the “pre-steady-state target cleavage rate” value was under 0.0001.
As for CUUAAGGUCUGGAUACUACUGGGUUACCUAA, the “pre-steady-state target cleavage rate” value amounted to 0.0257 ± 0.011.
Take CUUAAGCACUGGAACUACUGGGUUACCUAA: the “pre-steady-state target cleavage rate” value is 0.0798 ± 0.021.
For the sequence CUUAAGGUGUGGAUCUACUGGGUUACCUAA, the “pre-steady-state target cleavage rate” value is 0.055 ± 0.013.
With CUUAACCUCUGGAUCUACUGGCAUACCUAA, the “pre-steady-state target cleavage rate” value is under 0.0001.
For CUUAACCACUGGAUCUACUGGGAUACCUAA the value was 0.0188 ± 0.0073; for CUUAACCUCUGGAUCUACUGGGUUGCCUAA, 0.1 ± 0.025.
With CUUAAGCUCUCGAUGUACUGGGUUACCUAA, the “pre-steady-state target cleavage rate” value was 0.127 ± 0.022.
In the case of CUUAACCUCUGGAACUACAGGGUUACCUAA, the “pre-steady-state target cleavage rate” value was found to be 0.081 ± 0.016.
In the case of CUUAUCGAGUGGAUCUACUGGGUUACCUAA, the “pre-steady-state target cleavage rate” value was 0.0665 ± 0.015.
Turning to CUUAAGCUCUGGAUCUAGUGGGUUACCUAA, the “pre-steady-state target cleavage rate” value is 0.0282 ± 0.0073.
For CUUAUCCUCUGGAUCAACUGGGUUACCUAA, the “pre-steady-state target cleavage rate” value turned out to be 0.0659 ± 0.012.
To CUUAACCUGUGGAUCUACUGGGUUACCUAA belongs 0.1 ± 0.015; to CUUAAGGAGACCUAGAUCUGGGUUAACCUAA, under 0.0001.
